Experimental data as given in patent publication US20050203135A1, “Antagonists for treatment of CD/11CD18 adhesion receptor mediated disorders” (Genentech, Inc., priority 1998, published 2005).

Molecular target: CD11a/CD18-ICAM-1 interaction (recombinant human LFA-1 / human 5 domain ICAM-Ig) (Homo sapiens, UniProt P05107+P20701)
Settings: PLM2(μM), PLM2 antibody capture format of LFA/ICAM assay

Structure (SMILES) | IC50 [µM]
CC(=O)N1CCCC(C(=O)NCC[C@H](NC(=O)c2ccc(C(=O)NCc3cccc(O)c3)cc2Cl)C(=O)O)C1 (stereo partly drawn) [Example 191] | 0.016
CCC(=O)N1CCC(C(=O)NCC[C@H](NC(=O)c2ccc(C(=O)NCc3cccc(O)c3)cc2Cl)C(=O)O)CC1 [Example 193] | 0.014
CC(=O)N1CCC(C(=O)NCC[C@H](NC(=O)c2ccc(C(=O)NCc3cccc(O)c3)cc2Cl)C(=O)O)CC1 [Example 195] | 0.016
O=C(NCc1cccc(O)c1)c1ccc(C(=O)N[C@@H](CCNC(=O)C2CCCCN2)C(=O)O)c(Cl)c1 (stereo partly drawn) [Example 197] | 0.017
CCC(=O)NCc1cccc(C(=O)NCC[C@H](NC(=O)c2ccc(C(=O)NCc3cccc(O)c3)cc2Cl)C(=O)O)c1 [Example 198] | 0.019
CCCC(=O)NCc1cccc(C(=O)NCC[C@H](NC(=O)c2ccc(C(=O)NCc3cccc(O)c3)cc2Cl)C(=O)O)c1 [Example 199] | 0.029
CC(=O)NCc1cccc(C(=O)NCC[C@H](NC(=O)c2ccc(C(=O)NCc3cccc(O)c3)cc2Cl)C(=O)O)c1 [Example 200] | 0.018
CCC(=O)NCc1ccc(C(=O)NCC[C@H](NC(=O)c2ccc(C(=O)NCc3cccc(O)c3)cc2Cl)C(=O)O)cc1 [Example 202] | 0.023
CCCC(=O)NCc1ccc(C(=O)NCC[C@H](NC(=O)c2ccc(C(=O)NCc3cccc(O)c3)cc2Cl)C(=O)O)cc1 [Example 203] | 0.037
CC(=O)NCc1ccc(C(=O)NCC[C@H](NC(=O)c2ccc(C(=O)NCc3cccc(O)c3)cc2Cl)C(=O)O)cc1 [Example 204] | 0.025
CCC(=O)NCCC(=O)NCC[C@H](NC(=O)c1ccc(C(=O)NCc2cccc(O)c2)cc1Cl)C(=O)O [Example 206] | 0.023
CCCC(=O)NCCC(=O)NCC[C@H](NC(=O)c1ccc(C(=O)NCc2cccc(O)c2)cc1Cl)C(=O)O [Example 207] | 0.062
CC(=O)NCCC(=O)NCC[C@H](NC(=O)c1ccc(C(=O)NCc2cccc(O)c2)cc1Cl)C(=O)O [Example 208] | 0.021
CCC(=O)NCC(=O)NCC[C@H](NC(=O)c1ccc(C(=O)NCc2cccc(O)c2)cc1Cl)C(=O)O [Example 210] | 0.022
CCCC(=O)NCC(=O)NCC[C@H](NC(=O)c1ccc(C(=O)NCc2cccc(O)c2)cc1Cl)C(=O)O [Example 211] | 0.019
CC(=O)NCC(=O)NCC[C@H](NC(=O)c1ccc(C(=O)NCc2cccc(O)c2)cc1Cl)C(=O)O [Example 212] | 0.016
CCC(=O)N1CCCC(C(=O)NCCCC[C@H](NC(=O)c2ccc(C(=O)NCc3cccc(O)c3)cc2Cl)C(=O)O)C1 (stereo partly drawn) [Example 214] | 0.028
CCCC(=O)N1CCCC(C(=O)NCCCC[C@H](NC(=O)c2ccc(C(=O)NCc3cccc(O)c3)cc2Cl)C(=O)O)C1 (stereo partly drawn) [Example 215] | 0.027
CC(=O)N1CCCC(C(=O)NCCCC[C@H](NC(=O)c2ccc(C(=O)NCc3cccc(O)c3)cc2Cl)C(=O)O)C1 (stereo partly drawn) [Example 216] | 0.022
CCC(=O)N1CCC(C(=O)NCCCC[C@H](NC(=O)c2ccc(C(=O)NCc3cccc(O)c3)cc2Cl)C(=O)O)CC1 [Example 218] | 0.018
CCCC(=O)N1CCC(C(=O)NCCCC[C@H](NC(=O)c2ccc(C(=O)NCc3cccc(O)c3)cc2Cl)C(=O)O)CC1 [Example 219] | 0.018
CC(=O)N1CCC(C(=O)NCCCC[C@H](NC(=O)c2ccc(C(=O)NCc3cccc(O)c3)cc2Cl)C(=O)O)CC1 [Example 220] | 0.016
CC(=O)N1CCCCC1C(=O)NCCCC[C@H](NC(=O)c1ccc(C(=O)NCc2cccc(O)c2)cc1Cl)C(=O)O (stereo partly drawn) [Example 222] | 0.021

Structure (SMILES) | IC50 [µM]
CCC(=O)NCc1cccc(C(=O)NCCCC[C@H](NC(=O)c2ccc(C(=O)NCc3cccc(O)c3)cc2Cl)C(=O)O)c1 [Example 224] | 0.026
CC(=O)NCc1ccc(C(=O)NCCCC[C@H](NC(=O)c2ccc(C(=O)NCc3cccc(O)c3)cc2Cl)C(=O)O)cc1 [Example 226] | 0.025
CC(=O)NCCC(=O)NCCCC[C@H](NC(=O)c1ccc(C(=O)NCc2cccc(O)c2)cc1Cl)C(=O)O [Example 228] | 0.018
CC(=O)NCC(=O)NCCCC[C@H](NC(=O)c1ccc(C(=O)NCc2cccc(O)c2)cc1Cl)C(=O)O [Example 230] | 0.016
CCCOC(=O)NC[C@H](NC(=O)c1ccc(C(=O)NCc2cccc(O)c2)cc1Cl)C(=O)O [Example 231] | 0.003
CC(C)OC(=O)NC[C@H](NC(=O)c1ccc(C(=O)NCc2cccc(O)c2)cc1Cl)C(=O)O [Example 233] | 0.001
COC(=O)NC[C@H](NC(=O)c1ccc(C(=O)NCc2cccc(O)c2)cc1Cl)C(=O)O [Example 234] | 0.044
CCOC(=O)NC[C@H](NC(=O)c1ccc(C(=O)NCc2cccc(O)c2)cc1Cl)C(=O)O [Example 235] | 0.002
C[C@H](NC(=O)c1ccc(NC(=O)CNC(=O)c2cccs2)cc1Cl)C(=O)O [Example 257] | 0.042
C[C@H](NC(=O)c1ccc(NC(=O)[C@H](CCC(N)=O)NC(=O)c2ccccc2)cc1Cl)C(=O)O [Example 262] | 0.075
NCCCC[C@H](NC(=O)c1ccc(CNC(=O)/C=C/c2ccco2)cc1Cl)C(=O)O [Example 268] | 0.019
COc1cccc(C(NC(=O)c2cccs2)C(=O)Nc2ccc(C(=O)N[C@@H](C)C(=O)O)c(Cl)c2)c1 (stereo partly drawn) [Example 269] | 0.046
NC(=O)C[C@H](NC(=O)c1ccc(C(=O)N[C@H](CO)C(=O)Nc2cccc(O)c2)cc1Cl)C(=O)O [Example 272] | 0.08
CC(NC(=O)c1c(Cl)cc(CNC(=O)C=Cc2ccco2)cc1Cl)C(=O)O (stereo not drawn) [Example 273] | 0.016
NC(=O)CC(NC(=O)c1c(Cl)cc(CNC(=O)C=Cc2ccco2)cc1Cl)C(=O)O (stereo not drawn) [Example 274] | 0.006
Cc1cc(CNC(=O)C=Cc2cccs2)cc(C)c1C(=O)NC(CCCCN)C(=O)O (stereo not drawn) [Example 289] | 0.074
Cc1cc(CNC(=O)/C=C/c2ccco2)cc(C)c1C(=O)N[C@@H](CNC(=O)c1ccco1)C(=O)O [Example 290] | 0.009
O=C(NCc1cccc(O)c1)c1ccc(C(=O)N[C@@H](CCCCNCc2ccco2)C(=O)O)c(Cl)c1 [Example 291] | 0.007
O=C(NCc1cccc(O)c1)c1ccc(C(=O)N[C@@H](CNCc2ccco2)C(=O)O)c(Cl)c1 [Example 293] | 0.083
NC(=O)C[C@H](NC(=O)c1ccc(C(=O)NCc2cccc3occc23)cc1Cl)C(=O)O [Example 297] | 0.028
O=C(CCc1ccco1)NCc1cc(Cl)c(C(=O)N[C@@H](CNC(=O)c2cccs2)C(=O)O)c(Cl)c1 [Example 298] | 0.009
C/C(=C\C(=O)NCc1cc(Cl)c(C(=O)N[C@@H](CNC(=O)c2cccs2)C(=O)O)c(Cl)c1)c1ccco1 [Example 299] | 0.016
CC(CC(=O)NCc1cc(Cl)c(C(=O)N[C@@H](CNC(=O)c2cccs2)C(=O)O)c(Cl)c1)c1ccco1 (stereo partly drawn) [Example 300] | 0.074

The next lines start with the values.

IC50 [µM] | Structure (SMILES)
0.025 | C/C(=C\c1ccco1)C(=O)NCc1cc(Cl)c(C(=O)N[C@@H](CNC(=O)c2cccs2)C(=O)O)c(Cl)c1 [Example 301]
0.023 | CC(Cc1ccco1)C(=O)NCc1cc(Cl)c(C(=O)N[C@@H](CNC(=O)c2cccs2)C(=O)O)c(Cl)c1 (stereo partly drawn) [Example 302]
0.005 | Cc1cc(C(=O)NCc2cccc(O)c2)cc(C)c1C(=O)NC(CC(N)=O)C(=O)O (stereo not drawn) [Example 303]
0.015 | Cc1cc(C(=O)NCc2cccc(O)c2)cc(C)c1C(=O)NC(CCCCN)C(=O)O (stereo not drawn) [Example 305]
0.004 | Cc1cc(C(=O)NCc2cccc(O)c2)cc(C)c1C(=O)N[C@@H](CNC(=O)c1ccco1)C(=O)O [Example 306]
0.004 | O=C(NCc1cc(Cl)c(C(=O)N[C@@H](CNC(=O)c2cccs2)C(=O)O)c(Cl)c1)c1ccc2cc[nH]c2c1 [Example 307]
0.057 | O=C(NCC#Cc1cccc(O)c1)c1ccc(C(=O)N[C@@H](Cc2c[nH]c3ccccc23)C(=O)O)c(Br)c1 [Example 309]
0.089 | C[C@H](NC(=O)c1ccc(C(=O)NCC#Cc2cccc(O)c2)cc1Br)C(=O)O [Example 312]
0.042 | C=CCOC(=O)NCC[C@H](NC(=O)c1ccc(C(=O)NCc2cccc(O)c2)cc1Cl)C(=O)O [Example 324]
0.042 | CCOC(=O)NCC[C@H](NC(=O)c1ccc(C(=O)NCc2cccc(O)c2)cc1Cl)C(=O)O [Example 326]
0.07 | CC(C)OC(=O)NCC[C@H](NC(=O)c1ccc(C(=O)NCc2cccc(O)c2)cc1Cl)C(=O)O [Example 327]
0.074 | CCCOC(=O)NCC[C@H](NC(=O)c1ccc(C(=O)NCc2cccc(O)c2)cc1Cl)C(=O)O [Example 328]
0.009 | O=C(NCCC[C@H](NC(=O)c1ccc(C(=O)NCc2cccc(O)c2)cc1Cl)C(=O)O)OC1CC1 [Example 330]
0.027 | CCOC(=O)NCCC[C@H](NC(=O)c1ccc(C(=O)NCc2cccc(O)c2)cc1Cl)C(=O)O [Example 331]
0.057 | COC(=O)NCCC[C@H](NC(=O)c1ccc(C(=O)NCc2cccc(O)c2)cc1Cl)C(=O)O [Example 332]
0.096 | CCCOC(=O)NCCCC[C@H](NC(=O)c1ccc(C(=O)NCc2cccc(O)c2)cc1Cl)C(=O)O [Example 335]
0.079 | COC(=O)NCCCC[C@H](NC(=O)c1ccc(C(=O)NCc2cccc(O)c2)cc1Cl)C(=O)O [Example 337]
0.06 | NC(=O)C[C@H](NC(=O)c1ccc(C(=O)NCC#Cc2cccc(O)c2)cc1Br)C(=O)O [Example 338]
0.02 | C=CCOC(=O)NC[C@H](NC(=O)c1ccc(C(=O)NCC#Cc2cccc(O)c2)cc1Br)C(=O)O [Example 339]
0.042 | C=CCOC(=O)NCCCC[C@H](NC(=O)c1ccc(C(=O)NCc2cccc(O)c2)cc1Cl)C(=O)O [Example 352]
0.074 | C=CCOC(=O)NCCC[C@H](NC(=O)c1ccc(C(=O)NCc2cccc(O)c2)cc1Cl)C(=O)O [Example 353]
0.008 | O=C(NCc1cccc(O)c1)c1ccc(C(=O)N[C@@H](Cc2ccc(O)cc2)C(=O)O)c(Cl)c1 [Example 354]
0.016 | O=C(NCc1cccc(O)c1)c1ccc(C(=O)NC2(C(=O)O)CC2)c(Cl)c1 [Example 359]
